Assay in all cases: glycan array binding signal (z-score within array); higher = stronger binding
Holding throughout (settings): glycan notation: IUPAC condensed, linker removed

Assay [1] has as its target Gal(b1-4)GlcNAc(b1-2)Man(a1-6)[Man(a1-3)]Man(b1-4)GlcNAc(b1-4)GlcNAc. In outline: (§1)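 From the Consortium for Functional Glycomics database, 3228 arrays were curated, keeping only those whose protein sequence was available. Binding is given as a within-array Z-score averaged across arrays sharing a protein sequence and across linkers. Negative Z-scores can be read as non-binding.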

Assay [2] concerns the target Gal(b1-4)GlcNAc(b1-2)[Gal(b1-4)GlcNAc(b1-4)]Man(a1-3)[Gal(b1-4)GlcNAc(b1-2)Man(a1-6)]Man(b1-4)GlcNAc(b1-4)GlcNAc. In outline: as §1
The target of assay [3] is Gal(b1-4)GlcNAc(b1-2)[Gal(b1-4)GlcNAc(b1-4)]Man(a1-3)[Gal(b1-4)GlcNAc(b1-2)[Gal(b1-4)GlcNAc(b1-6)]Man(a1-6)]Man(b1-4)GlcNAc(b1-4)GlcNAc. In outline:
as §1

The target in assay [4] is Gal(b1-4)GlcNAc(b1-2)[Gal(b1-4)GlcNAc(b1-4)]Man(a1-3)[GlcNAc(b1-4)][Gal(b1-4)GlcNAc(b1-2)Man(a1-6)]Man(b1-4)GlcNAc(b1-4)GlcNAc. In outline: as §1
Assay [5] addresses Gal(b1-4)GlcNAc(b1-2)[Gal(b1-4)GlcNAc(b1-4)]Man(a1-3)[GlcNAc(b1-4)][Gal(b1-4)GlcNAc(b1-2)[Gal(b1-4)GlcNAc(b1-6)]Man(a1-6)]Man(b1-4)GlcNAc(b1-4)GlcNAc. In outline: as §1
Assay [6] concerns the target Gal(b1-4)GlcNAc(b1-2)[Gal(b1-4)GlcNAc(b1-4)]Man(a1-3)[GlcNAc(b1-4)][Gal(b1-4)GlcNAc(b1-2)[Gal(b1-4)GlcNAc(b1-6)]Man(a1-6)]Man(b1-4)GlcNAc(b1-4)[Fuc(a1-6)]GlcNAc. In outline:
as §1

The target of assay [7] is Gal(b1-4)GlcNAc(b1-2)[Gal(b1-4)GlcNAc(b1-6)]Man(a1-6)[Gal(b1-4)GlcNAc(b1-2)Man(a1-3)]Man(b1-4)GlcNAc(b1-4)GlcNAc. In outline:
as §1

Assay [8] addresses Gal(b1-4)GlcNAc(b1-2)[Gal(b1-4)GlcNAc(b1-6)]Man(a1-6)[Gal(b1-4)GlcNAc(b1-2)Man(a1-3)]Man(b1-4)GlcNAc(b1-4)[Fuc(a1-6)]GlcNAc. In outline: as §1
Assay [9] addresses Gal(b1-4)GlcNAc(b1-2)[Gal(b1-4)GlcNAc(b1-6)]Man(a1-6)[GlcNAc(b1-4)][Gal(b1-4)GlcNAc(b1-2)Man(a1-3)]Man(b1-4)GlcNAc(b1-4)GlcNAc. The gist of the method: as §1
The target of assay [10] is Gal(b1-4)GlcNAc(b1-2)[Gal(b1-4)GlcNAc(b1-6)]Man(a1-6)[GlcNAc(b1-4)][Gal(b1-4)GlcNAc(b1-2)[Gal(b1-4)GlcNAc(b1-4)]Man(a1-3)]Man(b1-4)GlcNAc(b1-4)[Fuc(a1-6)]GlcNAc. In outline: as §1
For assay [11], the target named is Gal(b1-4)GlcNAc(b1-3)Gal(b1-3)GalNAc. The gist of the method: as §1
Assay [12] addresses Gal(b1-4)GlcNAc(b1-3)Gal(b1-3)GlcNAc. In outline:
as §1

In assay [13] the target is Gal(b1-4)GlcNAc(b1-3)Gal(b1-4)Glc. The gist of the method:
as §1

Assay [14] has as its target Gal(b1-4)GlcNAc(b1-3)Gal(b1-4)GlcNAc. The gist of the method:
as §1

Assay [15] concerns the target Gal(b1-4)GlcNAc(b1-3)Gal(b1-4)GlcNAc(b1-2)Man(a1-3)[Gal(b1-4)GlcNAc(b1-3)Gal(b1-4)GlcNAc(b1-2)Man(a1-6)]Man(b1-4)GlcNAc(b1-4)GlcNAc. The gist of the method:
as §1

Assay [16] addresses Gal(b1-4)GlcNAc(b1-3)Gal(b1-4)GlcNAc(b1-2)Man(a1-3)[Gal(b1-4)GlcNAc(b1-3)Gal(b1-4)GlcNAc(b1-2)Man(a1-6)]Man(b1-4)GlcNAc(b1-4)[Fuc(a1-6)]GlcNAc. In outline: as §1
Assay [17] has as its target Gal(b1-4)GlcNAc(b1-3)Gal(b1-4)GlcNAc(b1-2)[Gal(b1-4)GlcNAc(b1-3)Gal(b1-4)GlcNAc(b1-6)]Man(a1-6)[Gal(b1-4)GlcNAc(b1-3)Gal(b1-4)GlcNAc(b1-2)Man(a1-3)]Man(b1-4)GlcNAc(b1-4)GlcNAc. In outline: as §1
In assay [18] the target is Gal(b1-4)GlcNAc(b1-3)Gal(b1-4)GlcNAc(b1-2)[Gal(b1-4)GlcNAc(b1-3)Gal(b1-4)GlcNAc(b1-6)]Man(a1-6)[Gal(b1-4)GlcNAc(b1-3)Gal(b1-4)GlcNAc(b1-2)Man(a1-3)]Man(b1-4)GlcNAc(b1-4)[Fuc(a1-6)]GlcNAc. In outline:
as §1

Assay [19] concerns the target Gal(b1-4)GlcNAc(b1-3)Gal(b1-4)GlcNAc(b1-3)Gal(b1-4)GlcNAc. The gist of the method:
as §1

Assay [20] deals with Gal(b1-4)GlcNAc(b1-3)Gal(b1-4)GlcNAc(b1-3)Gal(b1-4)GlcNAc(b1-2)Man(a1-3)[Gal(b1-4)GlcNAc(b1-3)Gal(b1-4)GlcNAc(b1-3)Gal(b1-4)GlcNAc(b1-2)Man(a1-6)]Man(b1-4)GlcNAc(b1-4)GlcNAc. In outline:
as §1

Assay [21] has as its target Gal(b1-4)GlcNAc(b1-3)Gal(b1-4)GlcNAc(b1-3)Gal(b1-4)GlcNAc(b1-2)Man(a1-3)[Gal(b1-4)GlcNAc(b1-3)Gal(b1-4)GlcNAc(b1-3)Gal(b1-4)GlcNAc(b1-2)Man(a1-6)]Man(b1-4)GlcNAc(b1-4)[Fuc(a1-6)]GlcNAc. In outline: as §1
Assay [22] deals with Gal(b1-4)GlcNAc(b1-3)Gal(b1-4)GlcNAc(b1-3)Gal(b1-4)GlcNAc(b1-2)[Gal(b1-4)GlcNAc(b1-3)Gal(b1-4)GlcNAc(b1-3)Gal(b1-4)GlcNAc(b1-6)]Man(a1-6)[Gal(b1-4)GlcNAc(b1-3)Gal(b1-4)GlcNAc(b1-3)Gal(b1-4)GlcNAc(b1-2)Man(a1-3)]Man(b1-4)GlcNAc(b1-4)[Fuc(a1-6)]GlcNAc. In outline: as §1

This is one part of the list.

One molecule from the supplement of paper PMC8728848 can be followed below.

B1: OrysaEULS2 (Oryza sativa) (protein)
chain: MVYCRANPNYAMTARNGAVVLAPANPKDEYQHWIKDMRWSTSIKDEEGYPAFALVNKATGQAIKHSLGQSHPVRLVPYNPEVMDESVLWTESRDVGNGFRCIRMVNNIYLNFDAFHGDKYHGGVRDGTDIVLWKWCEGDNQRWKIQPYYILEQKLISEEDLNSAVDHHHHHH
For the molecule B1, the “glycan array binding signal (z-score)” value was 5.65 in [1]; -0.191 in assay [2]; -0.21 in [3]; -0.213 in [4]; -0.203 in assay [5]; -0.176 in assay [6]. In addition, the “glycan array binding signal (z-score)” value in [7] is 1.53; in assay [8], 0.035; in assay [9], -0.158; in assay [10] it was -0.185; in assay [11], -0.255; in assay [12] it was -0.176. The “glycan array binding signal (z-score)” value in [13] was -0.186; in assay [14] it was -0.192; in assay [15] it was 0.706; in assay [16], 0.18; in assay [17], -0.109; in [18], 0.319. Moreover, the “glycan array binding signal (z-score)” value in [19] is -0.192; in assay [20], 0.319; in assay [21], -0.09; in assay [22], 0.086.
